Test results from patent US20260184738A1 (priority 2023, published 2026).

Conditions: at 100 μM

CC(C)OC(=O)[C@H](C)N[P@](=O)(OC[C@H]1O[C@@H](n2cnc3sc(C(N)=O)c(N)c32)C(O)C1O)Oc1ccccc1 (stereo partly shown) [CEM-015]
Toxicity in words, CHIKV row: Non-tox at 100 μM
